# The other results are listed elsewhere or left out.
# How the values were obtained:
# Experiment in all cases: glycan array binding signal (z-score within array); higher = stronger binding
# Details in all cases: glycan notation: IUPAC condensed, linker removed
# [1] = biological target: Fuc(a1-2)Gal
# In short: (§1)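 The binding signal is a Z-score computed within each array and averaged over linkers. Arrays of the same protein sequence at different concentrations or buffers were also averaged together. Data originate from 3228 arrays in the Consortium for Functional Glycomics database, kept only where the protein sequence was available.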
# [2] = biological target: Fuc(a1-2)Gal(b1-3)GalNAc
# In short: as §1
# [3] = biological target: Fuc(a1-2)Gal(b1-3)GalNAc(a1-3)[Fuc(a1-2)]Gal(b1-4)Glc
# In short: as §1
# [4] = biological target: Fuc(a1-2)Gal(b1-3)GalNAc(a1-3)[Fuc(a1-2)]Gal(b1-4)GlcNAc
# In short: as §1
# [5] = biological target: Fuc(a1-2)Gal(b1-3)GalNAc(b1-3)Gal
# In short: as §1
# [6] = biological target: Fuc(a1-2)Gal(b1-3)GalNAc(b1-3)Gal(a1-4)Gal(b1-4)Glc
# In short: as §1
# [7] = biological target: Fuc(a1-2)Gal(b1-3)GalNAc(b1-4)[Neu5Ac(a2-3)]Gal(b1-4)Glc
# In short: as §1
# [8] = biological target: Fuc(a1-2)Gal(b1-3)GlcNAc
# In short: as §1
# [9] = biological target: Fuc(a1-2)Gal(b1-3)GlcNAc(b1-2)Man(a1-3)[Fuc(a1-2)Gal(b1-3)GlcNAc(b1-2)Man(a1-6)]Man(b1-4)GlcNAc(b1-4)GlcNAc
# In short: as §1
# [10] = biological target: Fuc(a1-2)Gal(b1-3)GlcNAc(b1-2)Man(a1-3)[Fuc(a1-2)Gal(b1-3)GlcNAc(b1-2)Man(a1-6)]Man(b1-4)GlcNAc(b1-4)[Fuc(a1-6)]GlcNAc
# In short: as §1
# [11] = biological target: Fuc(a1-2)Gal(b1-3)GlcNAc(b1-3)Gal(b1-4)Glc
# In short: as §1
# [12] = biological target: Fuc(a1-2)Gal(b1-3)GlcNAc(b1-3)GalNAc
# In short: as §1
# [13] = biological target: Fuc(a1-2)Gal(b1-3)GlcNAc(b1-3)[Fuc(a1-3)[Gal(b1-4)]GlcNAc(b1-6)]Gal(b1-4)Glc
# In short: as §1
# [14] = biological target: Fuc(a1-2)Gal(b1-3)GlcNAc(b1-3)[Gal(b1-4)GlcNAc(b1-6)]Gal(b1-4)Glc
# In short: as §1
# [15] = biological target: Fuc(a1-2)Gal(b1-3)[Fuc(a1-4)]GlcNAc
# In short: as §1
# [16] = biological target: Fuc(a1-2)Gal(b1-3)[Fuc(a1-4)]GlcNAc(b1-2)Man(a1-3)[Fuc(a1-2)Gal(b1-3)[Fuc(a1-4)]GlcNAc(b1-2)Man(a1-6)]Man(b1-4)GlcNAc(b1-4)GlcNAc
# In short: as §1
# [17] = biological target: Fuc(a1-2)Gal(b1-3)[Fuc(a1-4)]GlcNAc(b1-3)[Fuc(a1-3)[Gal(b1-4)]GlcNAc(b1-6)]Gal(b1-4)Glc
# In short: as §1
# [18] = biological target: Fuc(a1-2)Gal(b1-3)[Fuc(a1-4)]GlcNAc(b1-3)[Gal(b1-4)GlcNAc(b1-6)]Gal(b1-4)Glc
# In short: as §1
# [19] = biological target: Fuc(a1-2)Gal(b1-4)Glc
# In short: as §1
# [20] = biological target: Fuc(a1-2)Gal(b1-4)Glc6S
# In short: as §1
# [21] = biological target: Fuc(a1-2)Gal(b1-4)GlcNAc
# In short: as §1
# [22] = biological target: Fuc(a1-2)Gal(b1-4)GlcNAc(b1-2)Man(a1-3)[Fuc(a1-2)Gal(b1-4)GlcNAc(b1-2)Man(a1-6)]Man(b1-4)GlcNAc(b1-4)GlcNAc
# In short: as §1
# [23] = biological target: Fuc(a1-2)Gal(b1-4)GlcNAc(b1-2)Man(a1-3)[Fuc(a1-2)Gal(b1-4)GlcNAc(b1-2)Man(a1-6)]Man(b1-4)GlcNAc(b1-4)[Fuc(a1-6)]GlcNAc
# In short: as §1
# [24] = biological target: Fuc(a1-2)Gal(b1-4)GlcNAc(b1-2)[Fuc(a1-2)Gal(b1-4)GlcNAc(b1-4)]Man(a1-3)[Fuc(a1-2)Gal(b1-4)GlcNAc(b1-2)Man(a1-6)]Man(b1-4)GlcNAc(b1-4)GlcNAc
# In short: as §1
# [25] = biological target: Fuc(a1-2)Gal(b1-4)GlcNAc(b1-3)Gal(b1-4)GlcNAc
# In short: as §1
# [26] = biological target: Fuc(a1-2)Gal(b1-4)GlcNAc(b1-3)Gal(b1-4)GlcNAc(b1-3)Gal(b1-4)GlcNAc
# In short: as §1
# [27] = biological target: Fuc(a1-2)Gal(b1-4)GlcNAc(b1-3)GalNAc
# In short: as §1
# [28] = biological target: Fuc(a1-2)Gal(b1-4)GlcNAc6S
# In short: as §1
# [29] = biological target: Fuc(a1-2)Gal(b1-4)[Fuc(a1-3)]GlcNAc
# In short: as §1
# [30] = biological target: Fuc(a1-2)Gal(b1-4)[Fuc(a1-3)]GlcNAc(b1-2)Man(a1-3)[Fuc(a1-2)Gal(b1-4)[Fuc(a1-3)]GlcNAc(b1-2)Man(a1-6)]Man(b1-4)GlcNAc(b1-4)GlcNAc
# In short: as §1
binder,measurement,setting,value
Tectonin 2 (Laccaria bicolor) (protein) MPWKGISGSLSRISAGSVTNVWGVNAANNIYRYTGDDAKPWVQIPGALTDIGAAADGTVWGVNAAGNIYRYVWDSNHWTQIKGALKRISAGSRTNVWGVNAGGAIYRYTGDDANPWVQIPGVLSDIGAGADGTVWGVNAAGEIYRYTGDQGDPNHWVKIPGALSAISAGIKTNVWGVNSANNIYTSTGDDKNPWLGIGGSLVDIGAGTDGVVWGVNAGGGIYRWIRD,glycan array binding signal (z-score),[1],-0.247
same,glycan array binding signal (z-score),[2],-0.064
same,glycan array binding signal (z-score),[3],-0.319
same,glycan array binding signal (z-score),[4],-0.382
same,glycan array binding signal (z-score),[5],-0.174
same,glycan array binding signal (z-score),[6],-0.416
same,glycan array binding signal (z-score),[7],-0.139
same,glycan array binding signal (z-score),[8],-0.235
same,glycan array binding signal (z-score),[9],-0.066
same,glycan array binding signal (z-score),[10],-0.069
same,glycan array binding signal (z-score),[11],-0.337
same,glycan array binding signal (z-score),[12],-0.105
same,glycan array binding signal (z-score),[13],-0.175
same,glycan array binding signal (z-score),[14],-0.495
same,glycan array binding signal (z-score),[15],-0.307
same,glycan array binding signal (z-score),[16],0.389
same,glycan array binding signal (z-score),[17],-0.5
same,glycan array binding signal (z-score),[18],-0.176
same,glycan array binding signal (z-score),[19],-0.214
same,glycan array binding signal (z-score),[20],-0.349
same,glycan array binding signal (z-score),[21],0.108
same,glycan array binding signal (z-score),[22],-0.029
same,glycan array binding signal (z-score),[23],-0.416
same,glycan array binding signal (z-score),[24],-0.021
same,glycan array binding signal (z-score),[25],-0.123
same,glycan array binding signal (z-score),[26],0.032
same,glycan array binding signal (z-score),[27],-0.32
same,glycan array binding signal (z-score),[28],-0.326
same,glycan array binding signal (z-score),[29],-0.194
same,glycan array binding signal (z-score),[30],0.23

# Source: the supplement of paper PMC8728848
